{
  "source": "the supplement of paper PMC8728848",
  "binders": {"B1": {"name": "Banana lectin (Musa acuminata) (protein)", "chain": "MNGAIKVGAHGGNGGSAFDMGPAYRIISVKIFSGDVVDGVDVTFTYYGKTETRHYGGSGGTPHEIVLQEGEYLVGMAGEVANYHGAVVLGKLGFSTNKKAYGPFGNTGGTPFSLPIAAGKISGFFGRGGKFLDAIGVYLEPLEHHHHHH"}},
  "experiment_in_all_cases": "glycan array binding signal (z-score within array); higher = stronger binding",
  "conditions_in_all_cases": "glycan notation: IUPAC condensed, linker removed; mutation: W10H",
  "key": {"[1]": {"target": "Fuc(a1-2)[GalNAc(b1-3)]Gal", "summary_of_the_method": "(§1)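 Glycan array data came from 3228 arrays in the Consortium for Functional Glycomics database, and only arrays with an available protein sequence were kept. Glycan names were put into IUPAC-condensed notation, and columns mapping to the same glycan were averaged. The binding signal is a within-array Z-score, averaged across arrays of one protein sequence run at different concentrations or buffers and across linkers. A negative Z-score can be read as non-binding.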"}, "Fuc(a1-3)GlcNAc": {"target": "Fuc(a1-3)GlcNAc", "summary_of_the_method": "as §1"}, "[2]": {"target": "Fuc(a1-3)[Gal(b1-4)]Glc6S", "summary_of_the_method": "as §1"}, "[3]": {"target": "Fuc(a1-3)[Gal(b1-4)]GlcNAc", "summary_of_the_method": "as §1"}, "[4]": {"target": "Fuc(a1-3)[Gal(b1-4)]GlcNAc(b1-2)Man", "summary_of_the_method": "as §1"}, "[5]": {"target": "Fuc(a1-3)[Gal(b1-4)]GlcNAc(b1-2)Man(a1-3)[Fuc(a1-3)[Gal(b1-4)]GlcNAc(b1-2)Man(a1-6)]Man(b1-4)GlcNAc(b1-4)GlcNAc", "summary_of_the_method": "as §1"}, "[6]": {"target": "Fuc(a1-3)[Gal(b1-4)]GlcNAc(b1-2)Man(a1-3)[Fuc(a1-3)[Gal(b1-4)]GlcNAc(b1-2)Man(a1-6)]Man(b1-4)GlcNAc(b1-4)[Fuc(a1-6)]GlcNAc", "summary_of_the_method": "as §1"}, "[7]": {"target": "Fuc(a1-3)[Gal(b1-4)]GlcNAc(b1-3)Gal(b1-3)[Fuc(a1-4)]GlcNAc", "summary_of_the_method": "as §1"}, "[8]": {"target": "Fuc(a1-3)[Gal(b1-4)]GlcNAc(b1-3)Gal(b1-4)[Fuc(a1-3)]GlcNAc", "summary_of_the_method": "as §1"}, "[9]": {"target": "Fuc(a1-3)[Gal(b1-4)]GlcNAc(b1-3)Gal(b1-4)[Fuc(a1-3)]GlcNAc(b1-3)Gal(b1-4)[Fuc(a1-3)]GlcNAc", "summary_of_the_method": "as §1"}, "[10]": {"target": "Fuc(a1-3)[Gal(b1-4)]GlcNAc(b1-3)GalNAc", "summary_of_the_method": "as §1"}, "[11]": {"target": "Fuc(a1-3)[Gal(b1-4)]GlcNAc(b1-6)GalNAc", "summary_of_the_method": "as §1"}, "[12]": {"target": "Fuc(a1-3)[Gal(b1-4)]GlcNAc(b1-6)[Gal(b1-3)GlcNAc(b1-3)]Gal(b1-4)Glc", "summary_of_the_method": "as §1"}, "[13]": {"target": "Fuc(a1-3)[Gal(b1-4)]GlcNAc6S", "summary_of_the_method": "as §1"}, "[14]": {"target": "Fuc(a1-3)[Gal3S(b1-4)]Glc", "summary_of_the_method": "as §1"}, "[15]": {"target": "Fuc(a1-3)[Gal3S(b1-4)]GlcNAc", "summary_of_the_method": "as §1"}, "[16]": {"target": "Fuc(a1-3)[Gal3S(b1-4)]GlcNAc6S", "summary_of_the_method": "as §1"}, "[17]": {"target": "Fuc(a1-3)[GalNAc(b1-4)]GlcNAc", "summary_of_the_method": "as §1"}, "[18]": {"target": "Fuc(a1-3)[GalNAc(b1-4)]GlcNAc6S", "summary_of_the_method": "as §1"}, "Fuc(a1-4)GlcNAc": {"target": "Fuc(a1-4)GlcNAc", "summary_of_the_method": "as §1"}, "Fuc(b1-3)GlcNAc": {"target": "Fuc(b1-3)GlcNAc", "summary_of_the_method": "as §1"}, "Gal(a1-2)Gal": {"target": "Gal(a1-2)Gal", "summary_of_the_method": "as §1"}, "Gal(a1-3)Gal": {"target": "Gal(a1-3)Gal", "summary_of_the_method": "as §1"}, "Gal(a1-3)Gal(b1-3)GlcNAc": {"target": "Gal(a1-3)Gal(b1-3)GlcNAc", "summary_of_the_method": "as §1"}, "[19]": {"target": "Gal(a1-3)Gal(b1-3)GlcNAc(b1-2)Man", "summary_of_the_method": "as §1"}, "[20]": {"target": "Gal(a1-3)Gal(b1-3)GlcNAc(b1-2)Man(a1-3)[Gal(a1-3)Gal(b1-3)GlcNAc(b1-2)Man(a1-6)]Man(b1-4)GlcNAc(b1-4)GlcNAc", "summary_of_the_method": "as §1"}, "[21]": {"target": "Gal(a1-3)Gal(b1-3)GlcNAc(b1-3)GalNAc", "summary_of_the_method": "as §1"}, "[22]": {"target": "Gal(a1-3)Gal(b1-3)GlcNAc(b1-6)GalNAc", "summary_of_the_method": "as §1"}, "[23]": {"target": "Gal(a1-3)Gal(b1-3)[Fuc(a1-4)]GlcNAc(b1-2)Man(a1-3)[Gal(a1-3)Gal(b1-3)[Fuc(a1-4)]GlcNAc(b1-2)Man(a1-6)]Man(b1-4)GlcNAc(b1-4)GlcNAc", "summary_of_the_method": "as §1"}, "Gal(a1-3)Gal(b1-4)Glc": {"target": "Gal(a1-3)Gal(b1-4)Glc", "summary_of_the_method": "as §1"}, "Gal(a1-3)Gal(b1-4)GlcNAc": {"target": "Gal(a1-3)Gal(b1-4)GlcNAc", "summary_of_the_method": "as §1"}, "[24]": {"target": "Gal(a1-3)Gal(b1-4)GlcNAc(b1-2)Man", "summary_of_the_method": "as §1"}, "[25]": {"target": "Gal(a1-3)Gal(b1-4)GlcNAc(b1-2)Man(a1-3)[Gal(a1-3)Gal(b1-4)GlcNAc(b1-2)Man(a1-6)]Man(b1-4)GlcNAc(b1-4)GlcNAc", "summary_of_the_method": "as §1"}, "[26]": {"target": "Gal(a1-3)Gal(b1-4)GlcNAc(b1-3)GalNAc", "summary_of_the_method": "as §1"}, "[27]": {"target": "Gal(a1-3)Gal(b1-4)GlcNAc(b1-6)GalNAc", "summary_of_the_method": "as §1"}, "[28]": {"target": "Gal(a1-3)Gal(b1-4)[Fuc(a1-3)]GlcNAc", "summary_of_the_method": "as §1"}, "[29]": {"target": "Gal(a1-3)Gal(b1-4)[Fuc(a1-3)]GlcNAc(b1-2)Man(a1-3)[Gal(a1-3)Gal(b1-4)[Fuc(a1-3)]GlcNAc(b1-2)Man(a1-6)]Man(b1-4)GlcNAc(b1-4)GlcNAc", "summary_of_the_method": "as §1"}, "Gal(a1-3)GalNAc": {"target": "Gal(a1-3)GalNAc", "summary_of_the_method": "as §1"}, "[30]": {"target": "Gal(a1-3)[Gal(a1-4)]Gal(b1-4)GlcNAc", "summary_of_the_method": "as §1"}, "[31]": {"target": "Gal(a1-4)Gal(b1-3)GlcNAc(b1-2)Man(a1-3)[Gal(a1-4)Gal(b1-3)GlcNAc(b1-2)Man(a1-6)]Man(b1-4)GlcNAc(b1-4)GlcNAc", "summary_of_the_method": "as §1"}, "Gal(a1-4)Gal(b1-4)Glc": {"target": "Gal(a1-4)Gal(b1-4)Glc", "summary_of_the_method": "as §1"}, "Gal(a1-4)Gal(b1-4)GlcNAc": {"target": "Gal(a1-4)Gal(b1-4)GlcNAc", "summary_of_the_method": "as §1"}, "[32]": {"target": "Gal(a1-4)Gal(b1-4)GlcNAc(b1-2)Man(a1-3)[Gal(a1-4)Gal(b1-4)GlcNAc(b1-2)Man(a1-6)]Man(b1-4)GlcNAc(b1-4)GlcNAc", "summary_of_the_method": "as §1"}, "[33]": {"target": "Gal(a1-4)Gal(b1-4)GlcNAc(b1-3)Gal(b1-4)Glc", "summary_of_the_method": "as §1"}, "Gal(a1-4)GlcNAc": {"target": "Gal(a1-4)GlcNAc", "summary_of_the_method": "as §1"}},
  "note": "This is one part of the list.",
  "data": [
    {"binder": "B1", "values": [
      {"measurement": "glycan array binding signal (z-score)", "setting": "[1]", "result": -0.171},
      {"measurement": "glycan array binding signal (z-score)", "setting": "Fuc(a1-3)GlcNAc", "result": -0.202},
      {"measurement": "glycan array binding signal (z-score)", "setting": "[2]", "result": -0.159},
      {"measurement": "glycan array binding signal (z-score)", "setting": "[3]", "result": -0.185},
      {"measurement": "glycan array binding signal (z-score)", "setting": "[4]", "result": -0.195},
      {"measurement": "glycan array binding signal (z-score)", "setting": "[5]", "result": -0.151},
      {"measurement": "glycan array binding signal (z-score)", "setting": "[6]", "result": -0.148},
      {"measurement": "glycan array binding signal (z-score)", "setting": "[7]", "result": -0.201},
      {"measurement": "glycan array binding signal (z-score)", "setting": "[8]", "result": -0.146},
      {"measurement": "glycan array binding signal (z-score)", "setting": "[9]", "result": -0.152},
      {"measurement": "glycan array binding signal (z-score)", "setting": "[10]", "result": -0.16},
      {"measurement": "glycan array binding signal (z-score)", "setting": "[11]", "result": -0.189},
      {"measurement": "glycan array binding signal (z-score)", "setting": "[12]", "result": -0.184},
      {"measurement": "glycan array binding signal (z-score)", "setting": "[13]", "result": -0.16},
      {"measurement": "glycan array binding signal (z-score)", "setting": "[14]", "result": -0.129},
      {"measurement": "glycan array binding signal (z-score)", "setting": "[15]", "result": -0.21},
      {"measurement": "glycan array binding signal (z-score)", "setting": "[16]", "result": -0.127},
      {"measurement": "glycan array binding signal (z-score)", "setting": "[17]", "result": -0.131},
      {"measurement": "glycan array binding signal (z-score)", "setting": "[18]", "result": -0.194},
      {"measurement": "glycan array binding signal (z-score)", "setting": "Fuc(a1-4)GlcNAc", "result": -0.187},
      {"measurement": "glycan array binding signal (z-score)", "setting": "Fuc(b1-3)GlcNAc", "result": -0.188},
      {"measurement": "glycan array binding signal (z-score)", "setting": "Gal(a1-2)Gal", "result": -0.177},
      {"measurement": "glycan array binding signal (z-score)", "setting": "Gal(a1-3)Gal", "result": -0.173},
      {"measurement": "glycan array binding signal (z-score)", "setting": "Gal(a1-3)Gal(b1-3)GlcNAc", "result": -0.171},
      {"measurement": "glycan array binding signal (z-score)", "setting": "[19]", "result": -0.18},
      {"measurement": "glycan array binding signal (z-score)", "setting": "[20]", "result": -0.183},
      {"measurement": "glycan array binding signal (z-score)", "setting": "[21]", "result": -0.176},
      {"measurement": "glycan array binding signal (z-score)", "setting": "[22]", "result": -0.174},
      {"measurement": "glycan array binding signal (z-score)", "setting": "[23]", "result": 0.199},
      {"measurement": "glycan array binding signal (z-score)", "setting": "Gal(a1-3)Gal(b1-4)Glc", "result": -0.151},
      {"measurement": "glycan array binding signal (z-score)", "setting": "Gal(a1-3)Gal(b1-4)GlcNAc", "result": -0.18},
      {"measurement": "glycan array binding signal (z-score)", "setting": "[24]", "result": -0.18},
      {"measurement": "glycan array binding signal (z-score)", "setting": "[25]", "result": -0.121},
      {"measurement": "glycan array binding signal (z-score)", "setting": "[26]", "result": -0.174},
      {"measurement": "glycan array binding signal (z-score)", "setting": "[27]", "result": -0.186},
      {"measurement": "glycan array binding signal (z-score)", "setting": "[28]", "result": -0.185},
      {"measurement": "glycan array binding signal (z-score)", "setting": "[29]", "result": -0.139},
      {"measurement": "glycan array binding signal (z-score)", "setting": "Gal(a1-3)GalNAc", "result": -0.179},
      {"measurement": "glycan array binding signal (z-score)", "setting": "[30]", "result": -0.164},
      {"measurement": "glycan array binding signal (z-score)", "setting": "[31]", "result": 0.214},
      {"measurement": "glycan array binding signal (z-score)", "setting": "Gal(a1-4)Gal(b1-4)Glc", "result": -0.169},
      {"measurement": "glycan array binding signal (z-score)", "setting": "Gal(a1-4)Gal(b1-4)GlcNAc", "result": -0.15},
      {"measurement": "glycan array binding signal (z-score)", "setting": "[32]", "result": -0.165},
      {"measurement": "glycan array binding signal (z-score)", "setting": "[33]", "result": -0.141},
      {"measurement": "glycan array binding signal (z-score)", "setting": "Gal(a1-4)GlcNAc", "result": -0.174}
    ]}
  ]
}
